This is one part of the list. These are noisy estimates, calculated here from bound and input reads.
molecular target: T1, Pho4 (S. cerevisiae) (UniProt P07270); assay: relative binding free energy (BET-seq); higher = weaker binding; conditions: reference: library average
T1 sequence: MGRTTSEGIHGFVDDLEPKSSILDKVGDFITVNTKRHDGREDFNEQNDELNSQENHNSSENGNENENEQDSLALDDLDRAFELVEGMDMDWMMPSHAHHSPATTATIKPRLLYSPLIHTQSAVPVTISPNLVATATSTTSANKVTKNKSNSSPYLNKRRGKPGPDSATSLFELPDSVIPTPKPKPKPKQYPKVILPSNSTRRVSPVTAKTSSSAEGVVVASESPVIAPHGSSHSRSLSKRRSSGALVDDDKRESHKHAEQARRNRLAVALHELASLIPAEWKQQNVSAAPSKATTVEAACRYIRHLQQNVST

Sequence	relative binding free energy [kcal/mol]
AGAGTCACGTGCAATG	0.24
TTGTGCACGTGGGGTG	-0.16
TCATTCACGTGTTGGT	0.34
TGGGCCACGTGTGACG	0.03
CGTGTCACGTGCAGGG	-0.11
GTGGACACGTGTGGTA	0.29
CTTATCACGTGAGTAG	0.35
TGTATCACGTGTTGCT	0.11
CTGGTCACGTGGGTAG	0.01
ACCGGCACGTGTTGGT	-0.04
ACTGTCACGTGGAAGG	0.17
AAGTTCACGTGACGGT	0.18
GCTTGCACGTGGTGTA	-0.07
GACGTCACGTGGTGGC	0.23
GGAACCACGTGTGTTT	0.07
TGGGACACGTGGTGGA	0.03
GGTTACACGTGAAGGA	0.47
GCGCTCACGTGGGTTA	0.15
ATGTACACGTGCGGTA	0
TGTGTCACGTGGCGTA	0.04
AATAGCACGTGTGGCA	0.12
ATACTCACGTGGTGTA	0.07
TGTCTCACGTGTTGTA	0.26
GTGTGCACGTGTTGCT	-0.08
ATTGACACGTGTTTTG	0.1

Sequence	relative binding free energy [kcal/mol]
TGACGCACGTGGCGGG	-0.19
GGATGCACGTGAGAAG	0.36
GTTTGCACGTGCGTTT	0.1
GGTCGCACGTGGTGGT	-0.02
TATGGCACGTGTGGGG	0
TGCTGCACGTGGAGGC	0.01
GAGGCCACGTGGGTTG	-0.26
TGGGTCACGTGATAGA	0.2
TGGTTCACGTGGTATA	0.19
TGAATCACGTGTTAGA	0.16
TTTGGCACGTGGTACT	-0.19
GGCTACACGTGGTAAG	0.12
TTTGACACGTGGGACT	0.05
ATGGGCACGTGGGACG	-0.22
TATCTCACGTGTGGAA	0.34
ATTCTCACGTGGTATA	0.15
TGTGACACGTGGGTTA	-0.16
TTTGTCACGTGTCGCA	0.09
TGTAACACGTGGCGGT	0.01
TCTGCCACGTGTTGTT	0.04
TGGTGCACGTGAGAAT	0.32
AGTCACACGTGTAGTG	0.03
TAATTCACGTGGCTGG	0.32
TATGTCACGTGCACGG	0.1
CACGGCACGTGGGGTG	-0.2

Sequence	relative binding free energy [kcal/mol]
TTCGTCACGTGGCTTT	0.01
TAATTCACGTGTCGAT	0.22
AAGGGCACGTGGATAT	-0.12
ATTTACACGTGTGGCG	0.21
GTAAGCACGTGACTTT	0.15
AGCGTCACGTGGAGTG	0.18
TAATGCACGTGTATTA	-0.1
GATGTCACGTGTGGGG	0.27
CGTGGCACGTGACTGG	-0.11
TTGTCCACGTGTCATG	0.09
ATGTTCACGTGAACGG	0.37
CCGGGCACGTGTAGTT	0.08
TGTAGCACGTGGGTTC	-0.13
AGGATCACGTGAATTG	0.23
TTCGGCACGTGGTCAG	-0.29
TTTCGCACGTGTTCTG	-0.01
TGTGTCACGTGGAACT	0.31
CTTTGCACGTGGTTTA	-0.13
GGCGGCACGTGTGACG	0.01
ACTTACACGTGTGGGA	0.32
AATCTCACGTGGGTTA	0.12
AGGTTCACGTGTTATT	0.31
ACCGTCACGTGGGGGT	-0.04
GGGGCCACGTGGTTGA	-0.17
ACGTGCACGTGGGGAA	-0.14

Sequence	relative binding free energy [kcal/mol]
AGCGGCACGTGGTGGA	-0.13
TTTTGCACGTGAGATG	0.16
TTCGTCACGTGTTCTT	0.08
CTGGACACGTGTTTAG	0.01
TATGGCACGTGCTTTT	-0.02
GGGGGCACGTGAATGT	0.19
ATTTCCACGTGTTGTG	-0.02
AAGGTCACGTGACTGT	0.39
AGTAACACGTGAAAGG	0.29
TTTTACACGTGCTTAT	-0.01
TTAGGCACGTGCTATG	-0.12
TCTGACACGTGTTGTT	0.22
ATTGGCACGTGTCGGC	-0.06
GGGAGCACGTGAATGG	0.14
TTTAGCACGTGATCGA	0.08
ATGGACACGTGGTCGT	-0.1
CGTGTCACGTGAAAGG	0.15
TAGCTCACGTGGCTTT	0.35
GTTGTCACGTGTATGA	0.15
CAAAACACGTGTGGGG	0.14
CGGTACACGTGTTGGC	0.21
CAGCTCACGTGTGGGG	0.13
ACAGGCACGTGGGGGG	-0.26
TTGGCCACGTGGGCAT	-0.24
CGGGTCACGTGGAATT	0.2

Sequence	relative binding free energy [kcal/mol]
GCTAGCACGTGGGTGG	-0.21
AGAGTCACGTGAGCGT	0.23
TTGGCCACGTGTTGTC	0.03
GTGGACACGTGTTGAA	0.09
TTCGACACGTGATGTA	0.14
TATCGCACGTGTTGGT	-0.07
CGGACCACGTGGGGGT	-0.27
TGTAACACGTGATGTG	0.19
AGGTTCACGTGGCTTA	0.15
GGTGTCACGTGAAGGC	0.49
GGGTACACGTGTATAT	0.09
GTCAACACGTGATGTG	0.32
TAAAGCACGTGATTTG	-0.02
GGAGACACGTGATATG	0.16
TGCAGCACGTGAGGTA	0.02
AAGGTCACGTGATGAT	0.25
AGCTTCACGTGTTATT	0.07
CGGGGCACGTGTAAAG	-0.04
GTATGCACGTGGTAAA	0.04
GAATACACGTGAGGTG	0.29
TTCGGCACGTGGATAA	0.14
GTCAGCACGTGAGGTT	0.13
TCGGACACGTGGTGTC	0
AGGGTCACGTGTTTGT	0.13
GGATGCACGTGGTCAG	-0.22

Sequence	relative binding free energy [kcal/mol]
AAGCGCACGTGTGTGA	-0.1
GGGGCCACGTGGACGT	-0.11
TATGGCACGTGTGTAT	-0.08
GAAGGCACGTGTCGTG	0.07
AAATTCACGTGGGGAA	0.18
TTTTCCACGTGTTCTA	0.18
TTGGACACGTGGCATG	0.02
GTAAACACGTGATGGG	0.26
TTGTACACGTGTGGGA	0.21
TTTTTCACGTGGATAT	0.25
TTGTTCACGTGAAGTG	0.38
TGAAGCACGTGGGAAT	-0.15
TTAGTCACGTGTGTCT	0.17
TGGAGCACGTGGGCGG	-0.18
TGGGTCACGTGGTGAC	0.09
AATATCACGTGGATTG	0.17
AGCAGCACGTGTCGGG	0
CGAGGCACGTGTAGTA	-0.14
ATGGGCACGTGAGGGG	0.21
TGGTACACGTGGCGAT	-0.02
TGGACCACGTGGTGGC	-0.09

Source: the BET-seq Pho4 binding data (Le et al. 2018)
